According to PMC12796746, “Profiling the TRPV4 ankyrin repeat domain interactome and its disruption by neuromuscular disease-causing mutations” (The Journal of Biological Chemistry, 2025):

Key:
Experiment in all cases: peptide or protein array; HuProt Human Proteome Microarray v2.0, full-length human proteins spotted in duplicate; V5-tagged TRPV4 protein in solution at 1 μM, 1 h at 4 °C, 150 mM NaCl, 2.7 mM KCl, 25 mM Trizma base, 0.05% Tween-20, pH 7.4; detected with Alexa Fluor 647 anti-V5; hit: z-score >= 2 (N terminus: both of 2 slides; ARD constructs: at least 2 of 3 slides)
Settings in all cases: both partners purified
[1] = target: T1, PSD95 (on the HuProt array) (human, UniProt P78352)
T1 construct: PSD95 (encoded by the DLG4 gene), human, spotted on the HuProt array; also called PDS95; source: bought: CDI Laboratories (HuProt v2.0 microarray)

[2] = target: T2, AGO3 (human, UniProt Q9H9G7 1-860)
T2 construct: AGO3, human, spotted on the HuProt array; source: bought: CDI Laboratories (HuProt v2.0 microarray)

[3] = target: T3, PACSIN2 (human, UniProt Q9UNF0 1-486)
T3 construct: PACSIN2, human, spotted on the HuProt array; source: bought: CDI Laboratories (HuProt v2.0 microarray)
T3 sequence (looked up): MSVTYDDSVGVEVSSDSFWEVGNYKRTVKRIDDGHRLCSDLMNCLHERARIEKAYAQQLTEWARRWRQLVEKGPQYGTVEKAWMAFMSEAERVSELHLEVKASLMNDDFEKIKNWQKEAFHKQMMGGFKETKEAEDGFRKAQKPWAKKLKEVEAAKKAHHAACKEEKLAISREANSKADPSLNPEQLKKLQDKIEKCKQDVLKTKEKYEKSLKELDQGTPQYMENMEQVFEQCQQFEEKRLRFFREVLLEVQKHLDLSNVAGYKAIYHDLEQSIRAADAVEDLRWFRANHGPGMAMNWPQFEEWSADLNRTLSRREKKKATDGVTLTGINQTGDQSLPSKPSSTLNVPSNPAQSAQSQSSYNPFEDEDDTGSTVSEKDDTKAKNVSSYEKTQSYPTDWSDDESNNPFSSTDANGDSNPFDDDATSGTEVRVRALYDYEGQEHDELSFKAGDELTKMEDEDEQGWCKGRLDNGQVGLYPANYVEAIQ

[4] = target: T4, PKD2L2 (human, UniProt Q9NZM6 1-624)
T4 construct: PKD2L2, human, spotted on the HuProt array; source: bought: CDI Laboratories (HuProt v2.0 microarray)
T4 sequence (looked up): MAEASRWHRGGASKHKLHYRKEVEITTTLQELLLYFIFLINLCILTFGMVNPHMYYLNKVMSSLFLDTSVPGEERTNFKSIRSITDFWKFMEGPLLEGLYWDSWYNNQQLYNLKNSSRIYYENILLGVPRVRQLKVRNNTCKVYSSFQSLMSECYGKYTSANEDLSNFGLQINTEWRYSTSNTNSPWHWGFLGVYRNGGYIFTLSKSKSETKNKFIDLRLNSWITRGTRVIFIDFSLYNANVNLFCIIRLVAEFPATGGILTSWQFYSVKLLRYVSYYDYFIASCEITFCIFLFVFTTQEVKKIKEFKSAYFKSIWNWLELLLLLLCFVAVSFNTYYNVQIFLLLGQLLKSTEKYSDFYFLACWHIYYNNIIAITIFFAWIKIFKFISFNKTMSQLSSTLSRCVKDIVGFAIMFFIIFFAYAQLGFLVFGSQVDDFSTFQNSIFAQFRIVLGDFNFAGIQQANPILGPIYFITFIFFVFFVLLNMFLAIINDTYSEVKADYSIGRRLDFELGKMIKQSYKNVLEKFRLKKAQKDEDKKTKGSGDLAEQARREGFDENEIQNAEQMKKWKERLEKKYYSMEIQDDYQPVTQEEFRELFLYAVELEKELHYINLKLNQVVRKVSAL

[5] = target: T5, AKT3 (human, UniProt Q9Y243 1-479)
T5 construct: AKT3, human, spotted on the HuProt array; source: bought: CDI Laboratories (HuProt v2.0 microarray)

T1 sequence (P78352 whole entry): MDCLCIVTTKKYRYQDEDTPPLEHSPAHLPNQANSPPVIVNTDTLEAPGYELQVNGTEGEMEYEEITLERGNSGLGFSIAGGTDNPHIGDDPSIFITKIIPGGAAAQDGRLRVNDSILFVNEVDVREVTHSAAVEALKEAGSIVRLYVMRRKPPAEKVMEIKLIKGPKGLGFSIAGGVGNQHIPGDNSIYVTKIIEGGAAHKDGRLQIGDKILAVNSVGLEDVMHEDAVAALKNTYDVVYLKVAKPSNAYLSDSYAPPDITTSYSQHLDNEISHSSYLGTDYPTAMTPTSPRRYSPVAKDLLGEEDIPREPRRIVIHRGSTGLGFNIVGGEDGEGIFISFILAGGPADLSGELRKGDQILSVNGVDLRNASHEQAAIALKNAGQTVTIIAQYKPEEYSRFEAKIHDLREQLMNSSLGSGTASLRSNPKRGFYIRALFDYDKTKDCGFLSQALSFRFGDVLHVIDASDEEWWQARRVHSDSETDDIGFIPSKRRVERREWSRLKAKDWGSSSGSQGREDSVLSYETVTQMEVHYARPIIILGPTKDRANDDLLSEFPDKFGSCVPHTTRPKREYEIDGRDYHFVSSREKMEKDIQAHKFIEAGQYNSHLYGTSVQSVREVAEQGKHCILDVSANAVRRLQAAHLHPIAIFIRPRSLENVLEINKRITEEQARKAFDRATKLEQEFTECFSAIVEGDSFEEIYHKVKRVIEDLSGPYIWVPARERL
AKT3, sequence (Q9Y243 whole entry): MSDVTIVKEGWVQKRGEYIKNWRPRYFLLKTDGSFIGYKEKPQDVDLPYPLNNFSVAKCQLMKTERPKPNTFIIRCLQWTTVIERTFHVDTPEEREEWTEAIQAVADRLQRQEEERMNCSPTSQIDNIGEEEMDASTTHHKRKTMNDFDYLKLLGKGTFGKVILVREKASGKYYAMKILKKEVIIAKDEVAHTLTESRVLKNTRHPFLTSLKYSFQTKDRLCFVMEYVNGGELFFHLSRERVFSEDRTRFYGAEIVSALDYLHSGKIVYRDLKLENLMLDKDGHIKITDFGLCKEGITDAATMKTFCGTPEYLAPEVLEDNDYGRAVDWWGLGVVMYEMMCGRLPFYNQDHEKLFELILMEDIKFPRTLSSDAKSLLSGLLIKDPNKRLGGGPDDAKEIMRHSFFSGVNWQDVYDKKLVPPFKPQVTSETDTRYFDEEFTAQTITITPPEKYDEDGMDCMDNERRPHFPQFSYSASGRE

binding result [1]: binds
binding result [2]: binds
binding result [3]: binds
binding result [4]: binds
binding result [5]: binds
B1: TRPV4^WT N-terminal domain (IDR and ARD, […]) (domain or fragment)
chain: not shown
notes: TRPV4, human, N-terminal domain (IDR and ARD), […]; also called TRPV4^WT N terminus; full N terminus; source: E. coli BL21(DE3), purified; not shown: His6, C-terminal, kept; V5, C-terminal, kept
